Here are results for 31 molecules from paper PMC9911399, “Two distinct binding modes provide the RNA-binding protein RbFox with extraordinary sequence specificity”.

The labels stand for the following.
T1: RBFOX1 RRM (Homo sapiens, UniProt Q9NWB1 109-208)
T1 sequence: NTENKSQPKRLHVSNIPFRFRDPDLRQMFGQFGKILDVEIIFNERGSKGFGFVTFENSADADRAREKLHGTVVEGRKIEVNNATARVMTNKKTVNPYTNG

B1: AGUCAUC (DNA:RNA)
RNA: GGGAGACCGGAAUUCAGAUUGUCCAGUCAUCUUAAAUCCCGUCGUAGCCACCA
DNA 1: CAATCTGAATTCCGGTCTCCC
DNA 2: TGGTGGCTACGACGGGATT
B2: GGGACCU (DNA:RNA)
RNA: B1 RNA with A25G, U27G, C28A, A29C, U30C, C31U
DNA 1: CAATCTGAATTCCGGTCTCCC
DNA 2: TGGTGGCTACGACGGGATT
B3: GCUUGCC (DNA:RNA)
RNA: B1 RNA with A25G, G26C, C28U, A29G, U30C
DNA 1: CAATCTGAATTCCGGTCTCCC
DNA 2: TGGTGGCTACGACGGGATT
B4: CAUCGUG (DNA:RNA)
RNA: B1 RNA with A25C, G26A, A29G, C31G
DNA 1: CAATCTGAATTCCGGTCTCCC
DNA 2: TGGTGGCTACGACGGGATT
B5: GCUUAGG (DNA:RNA)
RNA: B1 RNA with A25G, G26C, C28U, U30G, C31G
DNA 1: CAATCTGAATTCCGGTCTCCC
DNA 2: TGGTGGCTACGACGGGATT
B6: CCCAUAU (DNA:RNA)
RNA: GGGAGACCGGAAUUCAGAUUGUCCCCCAUAUUUAAAUCCCGUCGUAGCCACCA
DNA 1: CAATCTGAATTCCGGTCTCCC
DNA 2: TGGTGGCTACGACGGGATT
B7: ACCUACG (DNA:RNA)
RNA: B1 RNA with G26C, U27C, C28U, U30C, C31G
DNA 1: CAATCTGAATTCCGGTCTCCC
DNA 2: TGGTGGCTACGACGGGATT
B8: UUAGCGC (DNA:RNA)
RNA: B1 RNA with A25U, G26U, U27A, C28G, A29C, U30G
DNA 1: CAATCTGAATTCCGGTCTCCC
DNA 2: TGGTGGCTACGACGGGATT
B9: GCGUGUC (DNA:RNA)
RNA: B1 RNA with A25G, G26C, U27G, C28U, A29G
DNA 1: CAATCTGAATTCCGGTCTCCC
DNA 2: TGGTGGCTACGACGGGATT
B10: UGUGUCU (DNA:RNA)
RNA: B1 RNA with A25U, C28G, A29U, U30C, C31U
DNA 1: CAATCTGAATTCCGGTCTCCC
DNA 2: TGGTGGCTACGACGGGATT
B11: AUAACUC (DNA:RNA)
RNA: B1 RNA with G26U, U27A, C28A, A29C
DNA 1: CAATCTGAATTCCGGTCTCCC
DNA 2: TGGTGGCTACGACGGGATT
B12: CUGUACG (DNA:RNA)
RNA: B1 RNA with A25C, G26U, U27G, C28U, U30C, C31G
DNA 1: CAATCTGAATTCCGGTCTCCC
DNA 2: TGGTGGCTACGACGGGATT
B13: UCUUUCC (DNA:RNA)
RNA: B1 RNA with A25U, G26C, C28U, A29U, U30C
DNA 1: CAATCTGAATTCCGGTCTCCC
DNA 2: TGGTGGCTACGACGGGATT
B14: GCUCGUC (DNA:RNA)
RNA: B1 RNA with A25G, G26C, A29G
DNA 1: CAATCTGAATTCCGGTCTCCC
DNA 2: TGGTGGCTACGACGGGATT
B15: AUAACCC (DNA:RNA)
RNA: B1 RNA with G26U, U27A, C28A, A29C, U30C
DNA 1: CAATCTGAATTCCGGTCTCCC
DNA 2: TGGTGGCTACGACGGGATT
B16: GGGUGGC (DNA:RNA)
RNA: B1 RNA with A25G, U27G, C28U, A29G, U30G
DNA 1: CAATCTGAATTCCGGTCTCCC
DNA 2: TGGTGGCTACGACGGGATT
B17: GGCCUUU (DNA:RNA)
RNA: B1 RNA with A25G, U27C, A29U, C31U
DNA 1: CAATCTGAATTCCGGTCTCCC
DNA 2: TGGTGGCTACGACGGGATT
B18: AGACUGC (DNA:RNA)
RNA: B1 RNA with U27A, A29U, U30G
DNA 1: CAATCTGAATTCCGGTCTCCC
DNA 2: TGGTGGCTACGACGGGATT
B19: AGAUCUU (DNA:RNA)
RNA: B1 RNA with U27A, C28U, A29C, C31U
DNA 1: CAATCTGAATTCCGGTCTCCC
DNA 2: TGGTGGCTACGACGGGATT
B20: CCGAGAU (DNA:RNA)
RNA: B6 RNA with C27G, U29G
DNA 1: CAATCTGAATTCCGGTCTCCC
DNA 2: TGGTGGCTACGACGGGATT
B21: CCCGGGC (DNA:RNA)
RNA: B6 RNA with A28G, U29G, A30G, U31C
DNA 1: CAATCTGAATTCCGGTCTCCC
DNA 2: TGGTGGCTACGACGGGATT
B22: UCCAGCU (DNA:RNA)
RNA: B6 RNA with C25U, U29G, A30C
DNA 1: CAATCTGAATTCCGGTCTCCC
DNA 2: TGGTGGCTACGACGGGATT
B23: AGGCGAU (DNA:RNA)
RNA: B1 RNA with U27G, A29G, U30A, C31U
DNA 1: CAATCTGAATTCCGGTCTCCC
DNA 2: TGGTGGCTACGACGGGATT
B24: GUAGCCG (DNA:RNA)
RNA: GGGAGACCGGAAUUCAGAUUGUCCGUAGCCGUUAAAUCCCGUCGUAGCCACCA
DNA 1: CAATCTGAATTCCGGTCTCCC
DNA 2: TGGTGGCTACGACGGGATT
B25: UUUGCUG (DNA:RNA)
RNA: B24 RNA with G25U, A27U, C30U
DNA 1: CAATCTGAATTCCGGTCTCCC
DNA 2: TGGTGGCTACGACGGGATT
B26: GUCCACU (DNA:RNA)
RNA: B24 RNA with A27C, G28C, C29A, G31U
DNA 1: CAATCTGAATTCCGGTCTCCC
DNA 2: TGGTGGCTACGACGGGATT
B27: UGCGGGU (DNA:RNA)
RNA: B6 RNA with C25U, C26G, A28G, U29G, A30G
DNA 1: CAATCTGAATTCCGGTCTCCC
DNA 2: TGGTGGCTACGACGGGATT
B28: CAAUAAU (DNA:RNA)
RNA: B6 RNA with C26A, C27A, A28U, U29A
DNA 1: CAATCTGAATTCCGGTCTCCC
DNA 2: TGGTGGCTACGACGGGATT
B29: ACCUUCU (DNA:RNA)
RNA: B6 RNA with C25A, A28U, A30C
DNA 1: CAATCTGAATTCCGGTCTCCC
DNA 2: TGGTGGCTACGACGGGATT
B30: CGUGUGA (DNA:RNA)
RNA: B1 RNA with A25C, C28G, A29U, U30G, C31A
DNA 1: CAATCTGAATTCCGGTCTCCC
DNA 2: TGGTGGCTACGACGGGATT
B31: GUGAUGA (DNA:RNA)
RNA: B6 RNA with C25G, C26U, C27G, A30G, U31A
DNA 1: CAATCTGAATTCCGGTCTCCC
DNA 2: TGGTGGCTACGACGGGATT

Positions count from the first letter of the chain named. The list shows a part of the results.

This assay has as its target T1, RBFOX1 RRM. Nature of the assay: EMSA; HiTS-Eq, 1 nM pool, 10 min; buffer printed only for the single-RNA assays: 10 mM Tris pH 7.5, 150 mM NaCl, 3.4 mM EDTA, 0.001% NP-40, 30 C. The conditions noted are these: tags: His6 N-terminal (pET28a); label: 5' 32P. In outline:
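Purified RbFox RRM, wild type or mutant, was incubated for 10 min in 50 µL with 1 nM of a 5′-radiolabelled RNA pool carrying 7 randomized nucleotides, whose flanks were annealed to DNA oligonucleotides, over a series of increasing protein concentrations. Unbound RNA was resolved on 8% native PAGE, cut out, reverse-transcribed, barcoded by PCR and sequenced on an Illumina HiSeq 2500. Relative association constants were derived from changes in read counts for each RNA species versus the control reaction and normalised to the cognate motif.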
For orientation: In EMSA bound probe runs differently from free probe, usually more slowly.
For B1, the binding signal is 0.00714 KA relative to UGCAUGU.
B2: the binding signal was 0.0182 KA relative to UGCAUGU.
As for B3, the figure is 0.0307 KA relative to UGCAUGU.
B4: the binding signal was 0.00966 KA relative to UGCAUGU.
B5: the binding signal was 0.00977 KA relative to UGCAUGU.
With B6, the binding signal was 0.00248 KA relative to UGCAUGU.
As for B7, the figure is 0.00286 KA relative to UGCAUGU; as for B8, 0.0148 KA relative to UGCAUGU; as for B9, 0.0266 KA relative to UGCAUGU.
As for B10, the figure is 0.023 KA relative to UGCAUGU; as for B11, 0.00036 KA relative to UGCAUGU.
As for B12, the figure is 0.0105 KA relative to UGCAUGU; as for B13, 0.0045 KA relative to UGCAUGU; as for B14, 0.0303 KA relative to UGCAUGU.
Turning to B15, the binding signal is 0.00143 KA relative to UGCAUGU.
As for B16, the figure is 0.0216 KA relative to UGCAUGU; as for B17, 0.0127 KA relative to UGCAUGU; as for B18, 0.0128 KA relative to UGCAUGU.
As for B19, the figure is 0.00887 KA relative to UGCAUGU; as for B20, 0.00976 KA relative to UGCAUGU; as for B21, 0.00898 KA relative to UGCAUGU.
As for B22, the figure is 0.00536 KA relative to UGCAUGU.
On to B23, for which the binding signal is 0.00907 KA relative to UGCAUGU.
As for B24, the figure is 0.0117 KA relative to UGCAUGU; as for B25, 0.0217 KA relative to UGCAUGU; as for B26, 0.00579 KA relative to UGCAUGU.
Consider B27, for which the binding signal is 0.00917 KA relative to UGCAUGU.
As for B28, the figure is 0.00148 KA relative to UGCAUGU.
As for B29, the figure is 0.00415 KA relative to UGCAUGU.
As for B30, the figure is 0.0175 KA relative to UGCAUGU.
As to B31, the binding signal is 0.016 KA relative to UGCAUGU.
